# Results: paper PMC12040169 (PLOS Biology, 2025)
# This is one part of the list.
# Tested on: T1, C. trachomatis L2/434/Bu expressing GFP (CTL2-GFP)
# T1 construct: L2/434/Bu GFP intracellular growth in HeLa cells
# Parameters: species or system HeLa; C. trachomatis total inclusion area by high-content imaging, normalised to DMSO
# Settings: total inclusion area; 28.5 h, 10 µM; inhibitor
# Summary of the method: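 High-content imaging followed the bulk GFP/resorufin measurement: fixed, Hoechst-stained cells were scored for GFP inclusions and host nuclei per well. Total inclusion area and count served as growth proxies, nuclei number as the viability proxy. MIC calculation matched the bulk assay.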
row,SMILES,% of control remaining
1,CC(=O)N1CCCc2cc(C(O)CN3CCCC(C)C3)ccc21 (centres unmarked) [CBK282142],106.323
2,Cc1ccc(S(=O)(=O)N2C(=O)CCC2C(=O)O/N=C(\N)c2cccnc2)cc1 (centres unmarked) [CBK266864],111.643
3,Cc1ccc(C)c(NC(=O)CCc2c(C)nn3cnnc3c2C)c1 [CBK304358],59.0387
4,O=S(=O)(NCCc1csc(-c2cccnc2)n1)c1cccnc1 [CBK287546],78.8747
5,CC1(C)Cc2c(ccc3ccccc23)C(NC(Cc2c[nH]c3ccccc23)C(=O)O)=N1 (centres unmarked) [CBK262569],96.5061
6,CCN(CC)CCCNc1nccc(-c2cn(C)nc2C)n1 [CBK306654],51.9609
7,COC(=O)c1sccc1NS(=O)(=O)c1ccc(C(F)(F)F)cc1[N+](=O)[O-] [CBK004510],94.708
8,O=c1c2[nH]c3ccccc3c2ncn1Cc1ccccc1 [CBK287809],124.523
9,Cc1nccn1CC1(O)CCN(C(=O)C(C)c2ccccc2)CC1 (centres unmarked) [CBK285388],80.7191
10,CN1CCN(C(=O)COc2ccc(S(=O)(=O)Nc3ccc(Cl)cc3)cc2)CC1 [CBK268248],91.118
11,CC(CNC(=O)COc1ccc2ccccc2c1Br)CN(C)C (centres unmarked) [CBK267369],120.615
12,O=C(CCc1ccccc1)Nc1cccc2nsnc12 [CBK265680],108.215
13,Nc1ncnc(NCCc2ccc(Cl)cc2)c1[N+](=O)[O-] [CBK267351],100.751
14,CCOC(=O)c1cnn(C2CCCN(Cc3cc[nH]n3)C2)c1 (centres unmarked) [CBK305125],30.4779
15,N=c1n(CCCOc2ccc(Br)cc2)c2ccccc2n1CC(N)=O [CBK268786C],69.5847
16,O=C(O)c1ccc(NS(=O)(=O)c2ccc(Cl)cc2)cc1O [CBK200023],71.6743
17,O=C(Nc1c[nH]c(=O)[nH]c1=O)c1ccc(Oc2ccc(C(=O)Nc3c[nH]c(=O)[nH]c3=O)cc2)cc1 [CBK261184],97.3495
18,CC(=O)c1ccc(-c2nc(NC(=O)CC#N)cnc2-c2ccc(F)c(Cl)c2)s1 [CBK036841],70.9638
19,COc1ccc(C(NC(=O)c2ccc(N3C(=O)CCC3=O)cc2)c2ccccc2)cc1 (centres unmarked) [CBK285737],108.56
20,NC(=O)CCN(CCC(N)=O)S(=O)(=O)c1ccc(N)cc1 [CBK262134],87.2388
21,O=C(c1ccc2[nH]ccc2c1)N1CCCC1 [CBK149074],100.871
22,CCOc1ccc(Cl)cc1CN(C)C(=O)NCC(c1ccco1)N(C)C (centres unmarked) [CBK307013],78.4416
23,CN(Cc1ccccc1)C(=O)c1c[nH]nc1C1CCCN(CC2CCCCC2)C1 (centres unmarked) [CBK286489],91.1309
24,CCOc1ccc(N)cc1S(N)(=O)=O [CBK010112],97.8245
25,COc1ccc2c(c1)c(CN1CCCN(S(=O)(=O)c3ccc(-c4ccccc4)cc3)CC1)cn2C [CBK063125],54.8316
26,FC(F)(F)Oc1cccc(-c2cn3ccnc3c(NCCc3ccccn3)n2)c1 [CBK038017],126.679
27,O=C(O)c1cccc(N(CCO)CCO)c1 [CBK262419],96.8679

row,SMILES,% of control remaining
1,COc1ccc([C@@]23CC[C@@H](C(=O)Nc4ccc(C(F)(F)F)cn4)C[C@@H]2N(C)CC3)cc1OC [CBK046310T],91.6901
2,CCc1nc2cccnc2n1CCNC(=O)Cc1cccs1 [CBK283639],81.6489
3,CN(CCC1CCN(c2ccncc2)CC1)C(=O)c1cc2sccc2[nH]1 [CBK305468],57.0169
4,CCOC(=O)C1(C2CCCCC2)CCN(C(=O)c2ccc(OC(F)(F)F)cc2)CC1 [CBK136921],81.1118
5,O=C(CN1CCN(Cc2ccc3c(c2)OCO3)CC1)Nc1ccc(SC(F)(F)F)cc1 [CBK074385],80.6809
6,O=C1C2CCCCC2C(=O)N1CCCN1CCC(c2nc(-c3ccc(F)cc3)c3ccccn23)CC1 (centres unmarked) [CBK035972],103.288
7,CCCCCC1=NN(C(=O)OCC)C(O)(C(F)(F)F)C1 (centres unmarked) [CBK027739],70.9161
8,Cc1csc2ncc(C(=O)NCc3ccccc3)c(=O)n12 [CBK287290],77.0045
9,COc1ccc(S(=O)(=O)Nc2ccccc2C(=O)O)cc1C(=O)O [CBK264084],120.028
10,CSCCC(=O)NCc1ccc(-c2csnn2)cc1 [CBK149304],100.062
11,Cn1c(C(=O)NC2CCOC(C)(C)C2)cc2ccccc21 (centres unmarked) [CBK304344],76.3029
12,NC(=O)COc1cccc(/C=C2/SC(Nc3cccc(C(=O)O)c3)=NC2=O)c1 [CBK265027],91.5057
13,CC(C)n1cccc1CN[C@@H]1CCC(=O)N[C@H]1c1cccc(F)c1 [CBK282908],101.646
14,N#CCCn1cc(C(=O)n2nnc3ccccc32)c(-c2cc3ccccc3o2)n1 [CBK268073],99.1927
15,COCCCNC(=O)Cn1c(-c2ccc(F)cc2)cc2cccnc21 [CBK285385],62.9977
16,COc1ccc(C(=O)OC(C)(C)C)c(-c2nccnc2N2CCCN(C)CC2)c1 [CBK037360],142.08
17,C=CCn1cc(CN2CCC(O)(c3ccccc3C)CC2)c(C)n1 [CBK282581],110.352
18,c1csc(CNc2cncc(-c3ccncc3)n2)c1 [CBK065238],72.4861
19,CCOC(=O)c1sc(-c2cccc(C(F)(F)F)c2)nc1O [CBK075064],93.9465
20,COc1ccc(-c2csc(NC(=O)C(C)C)c2C(=O)O)cc1 [CBK286622],113.513
21,FC(F)(F)c1ccc2c(c1)N(CCCN1CCN(C34CC5CC(CC(C5)C3)C4)CC1)c1ccccc1S2 [CBK261938],85.4016
22,COc1ccc(CSCc2n[nH]c(=O)[nH]2)cc1[N+](=O)[O-] [CBK267425],95.6255
23,CC(C(=O)NC1(C#N)CCCCC1)N1CCOC(Cn2cccn2)C1 (centres unmarked) [CBK305337],84.5837
24,Fc1ccc(-c2nccnc2OCc2ccc3c(c2)OCO3)cc1 [CBK106896],103.526
25,COC[C@H]1CCCN1C(=O)Cn1[nH]c(C)c(Cc2c(Cl)cccc2Cl)c1=O [CBK115407],103.715
26,CCOc1cc(CN2CCN(C/C=C/c3ccccc3)CC2)ccc1OC [CBK261573],87.5138
27,COc1ccccc1-c1ccc(CC2(C(=O)NC3CCCCC3)CCOCC2)cc1 [CBK286515],103.594

row,SMILES,% of control remaining
1,COc1cc(CNc2nc[nH]n2)ccc1OCc1ccc(C)cc1 [CBK269768],101.889
2,O=C(CN1C(=O)N2CCN=C2c2ccc(Cl)cc21)NCC1CC1 [CBK282877],100.031
3,CCN1CCN(c2nccnc2OCc2cccnc2)CC1 [CBK083142],69.1834
4,COc1ccc(OC)c(NC(=O)CC2NCCNC2=O)c1 (centres unmarked) [CBK266477],78.7168
5,O=C(CSc1nnc2ccccn12)Nc1ccccc1 [CBK287328],68.0424
6,CSCCC(C(=O)O)N1C(=O)c2ccccc2C1=O (centres unmarked) [CBK218448],102.248
7,Cc1cc(C)c2c(N)c(C(=O)Nc3ccc(Br)cc3)sc2n1 [CBK072019],33.4761
8,CC(Sc1ncc(-c2ccc(F)cc2)n1Cc1ccccc1)C(=O)NC1CC1 (centres unmarked) [CBK297105],79.4888
9,CC(C)c1cccc2c1OC(C(C)C)C(=O)N2 (centres unmarked) [CBK009286],89.4741
10,CCOc1ccc(NC(=O)C2CCC(C)(C(=O)O)C2(C)C)cc1 (centres unmarked) [CBK295665],55.4826
11,Cc1cc2c(N3CCN(Cc4nc5ccccc5[nH]4)CC3)ncnc2s1 [CBK268213C],81.3515
12,CC(C)[C@H](CO)Nc1nc(-c2ccc(N3CCOCC3)cc2)cn2ccnc12 [CBK066151],84.4428
13,CCCNc1nc(-c2ccc(F)c(F)c2)cn2ccnc12 [CBK066573],93.9236
14,N#Cc1ccccc1N1CCN(c2cncc(-c3cccs3)n2)CC1 [CBK065656],105.272
15,CN(C)CCN(C)C(=O)c1ccc(-c2ccco2)nc1N(C)C [CBK106078],91.2565
16,Clc1ccc(COc2cccc3cccnc23)cn1 [CBK002718],87.3307
17,Cc1cc(NC(=O)c2nn3c(C(F)(F)F)cc(-c4ccccc4)nc3c2Cl)nn1CC(=O)N1CCOCC1 [CBK268209],89.1588
18,O=C(NC[C@H]1O[C@@H](CC(=O)N2CCN(c3ccccc3)CC2)[C@H](O)[C@@H]1O)c1ccccc1 [CBK288920],85.9033
19,COc1ccc(CN(CCN(C)C)C(=O)NCc2ccc(Cl)cc2)cc1OC [CBK159303],95.5787
20,O=C(NCCCN1CCCC1)Nc1ccccc1[N+](=O)[O-] [CBK267959],102.919
21,O=C(CCn1cccn1)NC(Cc1ccsc1)c1cccnc1 (centres unmarked) [CBK285393],101.451
22,Cc1cccc(C(=O)Nc2cccc(OCC(=O)O)c2)c1 [CBK268599],121.4
23,CCC(=O)N1CCCc2cc(C(O)CN3CCCC(C)C3)ccc21 (centres unmarked) [CBK283049],108.876
24,CCCNC(=O)CN1CCC(NC(=O)Cn2cc(Br)ccc2=O)CC1 [CBK305665],62.1442
25,OC(CN1CCN(C(c2ccccc2)c2ccccc2)CC1)Cn1c2ccccc2c2ccccc21 (centres unmarked) [CBK262730],75.7657
26,O=C(O)CC1SC(Nc2cccc(Cl)c2)=NC1=O (centres unmarked) [CBK131683],85.3439
